In PubChem BioAssay AID602332 (National Center for Advancing Translational Sciences (NCATS), 2012) one finds activation and Potency data, which are given here for 81 molecules.

Structures are written as SMILES. “And” between values parts separate entries of the source, which are not always exact repeats. Equal values may be shown once. Screen size: about 420,000 compounds; about 75 (0.02%) were called active. Calls follow the shape of the dose curve; as a rule, active = well fitted activation curve with a large enough effect; inconclusive = small, poorly fitted or top-dose-only effect; inactive = no such curve, though single readings can be large or run the other way. This is a selection; strong and weak results do not stand in their true shares. More than one record can exist for a structure, and the calls need not agree.
Potency is read from the fitted curve at half-maximal effect.

The test in a line: qHTS for Inducers of the Endoplasmic Reticulum Stress Response (ERSR) in Human Glioma: qHTS. Also: nearly all actives have a fitted effect of over 35% in size. As to activation: % of control where 0% means no effect. The conditions noted are these: U87-MG GRP78 promoter luciferase reporter, 16 h; activation: hits give high values. Put shortly:
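Stably transfected U87-MG glioma cells carrying a GRP78-based luciferase sensor; 16 h compound incubation. Luminescence end-point read 10 min after Bright-Glo addition at room temperature.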
As to `COC(=O)c1nn(-c2ccc(-c3ccccc3)cc2)cc1O`, the activation was inactive: -15.1%.

As for `COc1cc(/C=C/C(=O)c2ccc3c(c2)OCO3)cc(OC)c1OC`, the Potency was active: 28.2 µM.

In the case of `O=C1C(SCCO)=C(SCCO)C(=O)c2ccccc21`, the activation was inactive: -11.7% [middle of 5 runs].

For the molecule `C[C@]12CCC3c4ccc(O)cc4CCC3C1CCC2OC(=O)CCC1CCCC1` (stereo partly specified), the activation was inactive: -5.94%.

For the molecule `Cc1ccc(F)c(C2C3C=CCC(c4ccccc4)C3C(=O)N2Cc2ccccc2)c1` (stereo unspecified), the activation was inactive: -10.8%.

For the molecule `Clc1ccc(-n2nnnc2Sc2ncnc3sccc23)cc1`, the activation was inactive: -16.5%.

Regarding `CCOC(=O)C1=C(O)C(=O)N(Cc2ccccc2)C1`, the activation is inactive: 1.65%.

As to `COc1ccc(/C=C/C(=O)c2c(O)ccc3c(C)cc(=O)oc23)cc1`, the activation is inactive: -3.37%.

For `Cc1ccc(/C=C/c2nc3ccccc3s2)s1`, the activation was inactive: -17%.

In the case of `O=S1(=O)C=C(Sc2nc3ccccc3s2)c2ccccc21`, the activation was inactive: -13.5%.

Consider `O=C1c2cccc3cccc(c23)C(=O)N1CC1CCN(CC(O)COc2ccc3ccccc3c2)CC1` (stereo unspecified), for which the activation was inactive: -18.8%.

As to `CCOC(=O)/C(=C/c1ccc(OC(F)F)cc1)C1=Nn2c(nnc2-c2ccc(Cl)cc2)SC1`, the activation was inactive: -13.6%.

Turning to `C/C(=N\NC(=O)c1ccccc1O)c1cccs1`, the activation was inactive: -15.2%.

Regarding `C[C@H](CO)N1C[C@H](C)[C@@H](CN(C)C(=O)Nc2ccc(C(F)(F)F)cc2)Oc2c(NC(=O)c3ccncc3)cccc2C1=O`, the activation is inactive: -1.3%.

Consider `O=C1CCc2ccc(OCCCCN3CCN(c4cccc(Cl)c4Cl)CC3)cc2N1`, for which the activation is inactive: -3.19%.

For the molecule `O=C(Nc1ccc(NC(=O)c2ccco2)nc1)c1ccco1`, the activation was inactive: -14.2%.

Take `O=C(Cn1ncc(Cl)c(Cl)c1=O)c1ccc(Cl)cc1`: the activation is inactive: -15.2%.

For `Cc1cc(C)nc(SCc2ccc(C(=O)NNC(=O)Nc3cccc(Cl)c3)cc2)n1`, the activation is inactive: -14.9%.

For `CC(C)=CCc1c2c(c3occ(-c4ccc(O)cc4)c(=O)c3c1O)C=CC(C)(C)O2`, the activation was inactive: -9.13%.

For `CC12CCC=CC1C(c1ccc3ccccc3c1Br)N(Cc1ccccc1)C2=O` (stereo unspecified), the activation is inactive: 6.05%.

Take `Cc1ccc(-c2cc(C(=O)N3CCOCC3)no2)cc1`: the activation was inactive: -14.7%.

As to `Cc1ccc(C(=O)CCS(=O)(=O)c2ccc(F)cc2)cc1`, the activation was inactive: -17.3%.

Take `CCCCNc1ccc(C(=O)OCCN(C)C)cc1`: the activation was inactive: 0.494% and inactive: -0.539% and inactive: -2.92%.

Take `N#C/C(=C\c1ccc(OCc2cccc(C(=O)O)c2)cc1)C(=O)NCc1ccco1`: the activation was inactive: -14.6%.

Consider `COc1cc(/C=N/Nc2ccc(Cl)c(C(=O)O)c2)ccc1OC(=O)c1ccco1`, for which the activation is inactive: -14%.

Regarding `c1cncc(CNc2ncnc3ccc(-c4ccoc4)cc23)c1`, the activation was inactive: -0.142%.

With `O=C(C[C@H]1C/C=C\C[C@H](NC(=O)OCC2c3ccccc3-c3ccccc32)C(=O)O[C@H](c2ccccc2)CNC1=O)N[C@H](CO)Cc1ccccc1`, the Potency is active: 28.2 µM.

`Cc1ccc(-n2nc3c(N4CCC(C(=O)NCc5ccccc5C)CC4)nnc(C)c3c2C)cc1`: the activation is inactive: -19.3%.

Consider `Cn1c2ccccc2c2cc(C(=O)NNC(=O)CCl)sc21`, for which the activation was inactive: -16.2%.

For `CNC1CCC(c2ccc(Cl)c(Cl)c2)c2ccccc21` (stereo unspecified), the activation is inactive: -9.95%.

`CC(C)(Sc1ccc(CCN(CCCCC2CCCCC2)C(=O)NC2CCCCC2)cc1)C(=O)O`: the activation was inactive: -2.55% and inactive: -4.29% and inactive: 0.798%.

As to `C=C(C)COc1ccc(-c2[nH]ncc2Oc2ccccc2OCC)c(O)c1`, the activation was inactive: -18.1%.

Regarding `C/C(=C\c1ccc(C(=O)O)cc1)c1ccc2c(c1)C(C)(C)CCC2(C)C`, the activation was inactive: -4.99% [middle of 4 runs].

Consider `COc1ccc(C(=O)Nc2ccc(C)cn2)c(OC)c1`, for which the activation is inactive: -15.6%.

For the molecule `COc1cc(NC(C)CCCN)c2ncccc2c1` (stereo unspecified), the activation is inactive: -7.27% and inactive: -10.3%.

For `CC(C)c1ccc(Cn2ccc3c4c(N)nc(NC5CC5)nc4ccc32)cc1`, the activation is inactive: -11.7%.

Turning to `CN1c2ccccc2C(C)(C)C12C=Cc1cc(O)ccc1O2` (stereo unspecified), the activation is inactive: -1.77%.

In the case of `CC[C@H](C)[C@H]1O[C@]2(CC[C@@H]1C)C[C@@H]1C[C@@H](C/C=C(\C)[C@H](O[C@@H]3C[C@H](OC)[C@H](O[C@@H]4C[C@H](OC)[C@@H](O)[C@H](C)O4)[C@H](C)O3)[C@@H](C)/C=C/C=C3\CO[C@@H]4[C@H](O)C(C)=C[C@@H](C(=O)O1)[C@]34O)O2`, the activation was inactive: -10.1%.

For `CCOC(=O)COc1cc(Br)c(/C=N/Nc2ccccc2)cc1OC`, the Potency is active: 35.5 µM.

As to `CC(C)(C)c1ccc(C(O)CCCN2CCC(C(O)(c3ccccc3)c3ccccc3)CC2)cc1` (stereo unspecified), the activation was inactive: -4.96% [middle of 4 runs].

On to `Cc1cc(=O)oc2c(O)c(O)ccc12`, for which the Potency was active: 28.2 µM.

For `O=C(CCl)N(CCc1ccccc1)CCc1ccccc1`, the activation was inactive: -18.9%.

For the molecule `O=[N+]([O-])c1cc(S(=O)(=O)NCCN2CCOCC2)ccc1Sc1nnnn1-c1ccccc1`, the activation was inactive: -14.5%.

For the molecule `CC(C)c1ccc2c(c1)c(SC(C)(C)C)c(CC(C)(C)C(=O)O)n2Cc1ccc(Cl)cc1`, the activation was inactive: 6.07% and inactive: 15.3%.

Regarding `CCOc1ccccc1CNC(=O)C1CCN(c2nnc(C)c3c(C)n(-c4ccc(C)cc4)nc23)CC1`, the activation was inactive: -5.22%.

As to `COc1cccc2sc(N(CCCN(C)C)C(=O)CCS(=O)(=O)c3ccccc3)nc12`, the activation was inactive: -15.4%.

As for `O=C1C2C(c3ccccc3)CC=CC2[C@H](c2ccc3ccccc3c2)N1Cc1ccccc1` (stereo partly specified), the activation was inactive: -2.86%.

Turning to `Cc1cnc(NC(=O)c2ccc(OCC3CCCO3)cc2)s1` (stereo unspecified), the activation was inactive: -15.4%.

As for `CN[C@@H]1CC[C@H](c2ccc(Cl)c(Cl)c2)c2ccccc21`, the activation is inactive: -5.03%.

For the molecule `O=C(Nc1ccc(NC(=O)c2cccs2)cn1)c1ccco1`, the activation was inactive: -13.5%.

Turning to `c1cc2c(cc1C1CCCCC1)c1c3n2CCCNC3CCC1` (stereo unspecified), the activation was inactive: -18.8%.

Turning to `Cc1cc(C)nc(Sc2ncnc(N)c2[N+](=O)[O-])n1`, the activation was inactive: -16.1%.

On to `CCN(CC)CCCNC(=O)CSc1c2c(nc3cc(Cl)ccc13)CCCC2`, for which the activation is inactive: -11.5% and inactive: -15.6%.

For the molecule `CC(C)(C)n1ncc2c(=O)n(CC(=O)NCc3ccccc3)cnc21`, the activation was inactive: -12.5%.

Consider `C[C@H]([C@H](C)N1CC(=O)NC(=O)C1)N1CC(=O)NC(=O)C1`, for which the activation was inactive: 17.3%.

In the case of `CCS(=O)(=O)c1ncc(Cl)c(C(=O)Nc2ccc(S(=O)(=O)N3CCCC(C)C3)cc2)n1` (stereo unspecified), the activation was inactive: -18.6%.

`N/C(=N\OC(=O)c1ccc2ccccc2c1)c1ccccn1`: the activation was inactive: -14.1%.

`CN(C)S(=O)(=O)n1cc(/C=C(\NC(=O)c2ccccc2Cl)C(=O)NCCCn2ccnc2)c2ccccc21`: the activation was inactive: -4.52%.

Take `N#C/C(=C\c1ccc(O)c(O)c1)C(=O)NCc1ccccc1`: the Potency is active: 25.1 µM.

Consider `C#C[C@]1(O)CC[C@H]2[C@@H]3CCC4=CC(=O)CC[C@@H]4[C@H]3CC[C@@]21CC`, for which the Potency is active: 20 µM.

Regarding `O=C(/C=C/c1ccc(O)c(O)c1)O[C@@H]1C[C@](O)(C(=O)O)C[C@@H](O)[C@H]1O`, the activation is inactive: -3.72%.

In the case of `Cc1ccccc1C(=O)O/N=C(\N)c1ccccc1`, the activation is inactive: -16%.

In the case of `N.N.N.N.N.N.N.N.N.N.N.N.N.N.O.O.[Ru+4].[Ru+5].[Ru+5]`, the activation was inactive: -10.8%.

For `CN[C@H]1CC[C@@H](c2ccc(Cl)c(Cl)c2)c2ccccc21`, the activation is inactive: -6.63% [middle of 4 runs].

On to `CCCCN(C)C(=O)c1cc2cc3ccc(OC)cc3nc2s1`, for which the activation was inactive: -13.7%.

Turning to `CC(C)(C)c1cc(O)c(C(C)(C)C)cc1O`, the activation was inactive: 2.38%.

For `COc1cc(/C=N/NC(=O)Cn2nc([N+](=O)[O-])cc2C)cc(Br)c1OCc1ccccc1`, the activation is inactive: -12.6%.

For `O=C1CC(c2ccco2)CC2=C1C1c3ccccc3C(=O)N1c1ccccc1N2` (stereo unspecified), the Potency is active: 28.2 µM.

Regarding `CCCCCCN(C(=O)CCl)c1ccccc1`, the activation was inactive: -15.3%.

Turning to `COc1cc2nc(Nc3ccc(F)cc3)nc(N)c2cc1OC`, the activation was inactive: 2.86%.

For `CCCCC(CC)CN=C(N)NC(N)=NCCCCCCN=C(N)NC(N)=NCC(CC)CCCC` (stereo unspecified), the activation is inactive: -12.7% and inactive: -11.7%.

As for `COc1ccc(Cl)cc1C(=O)NCCc1ccc(S(=O)(=O)NC(=O)NC2CCCCC2)cc1`, the activation is inactive: -4.12% [middle of 7 runs].

Regarding `C=CC[C@@H](CC(=O)OC(C)(C)C)C(=O)OC[C@@H]1CCCN1C(=O)[C@@H](CC=C)CC(=O)N[C@H](CO)Cc1ccccc1`, the activation is inactive: -4.24%.

In the case of `CC(=O)c1c(C)[nH]c(C(=O)Nc2ccc(C)cn2)c1C`, the activation is inactive: -15.5%.

Consider `O=C(Oc1ccc(-c2nc(-c3ccccn3)no2)cc1)c1ccccc1`, for which the activation is inactive: -14.8%.

For the molecule `CC1(C)C(=O)C=C[C@@]2(C)C1C=C[C@@]1(C)C2CC[C@@]2(C)C(c3ccoc3)OC(=O)C3OC312` (stereo partly specified), the activation is inactive: -12.6%.

`Cc1ccccc1C(=O)N1CCN(c2ccc(NC(=O)c3ccco3)cc2Cl)CC1`: the activation was inactive: -13.4%.

With `CC(=O)OC[C@H]1O[C@@H](Sc2cccc3cccnc23)[C@H](OC(C)=O)[C@@H](OC(C)=O)[C@H]1OC(C)=O`, the activation was inactive: 5.44%.

In the case of `CCc1ccc(/C=C/C(=O)c2c(C)cc(C)[nH]c2=O)cc1`, the activation was inactive: -15.3%.

On to `COc1ccc(/C=C/c2nc3ccccc3c(=O)o2)cc1`, for which the activation is inactive: -18.8%.

For `OC(CNCC1CCCO1)Cn1c2ccc(Cl)cc2c2cc(Cl)ccc21` (stereo unspecified), the activation was inactive: -17.1%.
